Data published in PubChem BioAssay AID488969 (Vanderbilt High Throughput Screening Facility, 2010).
In all, about 110,000 compounds were measured (“z-score”: median about -0.1, highest 2% from about 2 on). The list shows a part of the results. Active and inactive are the calls of the source.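 How the source made its calls: active means z-score in the third read window above 3 or below -3; inactive means the rest.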

What follows are compounds tested against Metabotropic glutamate receptor 8 (Rattus norvegicus) (UniProt P70579) (assay: rat mGluR8 modulators via GIRK flux, primary screen, cell-based, thallium flux, HTS (AID 488969)). Conditions: HEK293 rat mGluR8, GIRK (G protein-gated inwardly rectifying potassium channel) thallium flux, FluoZin2; at 10 µM; stronger effect = higher value; submaximal glutamate (EC20) added with thallium.
Chain of UniProt P70579 (P70579 whole entry, looked up): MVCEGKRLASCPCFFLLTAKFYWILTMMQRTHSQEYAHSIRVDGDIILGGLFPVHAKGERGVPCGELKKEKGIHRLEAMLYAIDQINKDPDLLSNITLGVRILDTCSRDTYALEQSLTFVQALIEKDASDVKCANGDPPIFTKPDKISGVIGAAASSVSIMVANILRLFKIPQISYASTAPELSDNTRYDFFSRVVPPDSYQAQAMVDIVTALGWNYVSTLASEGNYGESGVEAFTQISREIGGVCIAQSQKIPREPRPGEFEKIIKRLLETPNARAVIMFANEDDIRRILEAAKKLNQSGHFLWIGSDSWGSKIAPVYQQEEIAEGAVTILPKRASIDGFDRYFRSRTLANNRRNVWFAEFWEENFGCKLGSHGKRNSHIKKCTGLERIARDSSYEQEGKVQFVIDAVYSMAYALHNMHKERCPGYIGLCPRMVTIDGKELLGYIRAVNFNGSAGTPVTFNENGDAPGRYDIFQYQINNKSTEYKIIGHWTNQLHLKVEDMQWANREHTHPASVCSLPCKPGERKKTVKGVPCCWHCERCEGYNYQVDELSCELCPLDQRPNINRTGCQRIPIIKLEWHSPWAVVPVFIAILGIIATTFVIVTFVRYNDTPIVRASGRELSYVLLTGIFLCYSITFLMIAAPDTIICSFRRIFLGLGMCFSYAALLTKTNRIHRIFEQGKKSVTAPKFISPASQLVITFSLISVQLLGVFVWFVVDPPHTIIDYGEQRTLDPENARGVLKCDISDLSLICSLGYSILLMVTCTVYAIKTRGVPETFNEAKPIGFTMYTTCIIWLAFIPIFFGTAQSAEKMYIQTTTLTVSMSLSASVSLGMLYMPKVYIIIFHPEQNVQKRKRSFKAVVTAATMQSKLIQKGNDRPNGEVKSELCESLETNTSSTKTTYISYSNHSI

SMILES	z-score
CCOC(=O)C1=C(CSc2nc3c(cc2C#N)CN(C)CC3)OC(N)=C(C#N)C1c1ccc(Cl)cc1 (stereo not drawn)	0.063
Cc1ccccc1NC(=O)c1cnc(Nc2nc3ccccc3s2)nc1C	-0.102
Cc1ccc(CN2C(=O)CCC2C(=O)NCc2ccc(F)cc2)cc1 (stereo not drawn)	0.736
CC1S/C(=N/N=C/c2cccs2)NC1=O (stereo not drawn)	-0.359
CC(C)C(=O)Nc1ccc(C(=O)NNC(=O)C(c2ccccc2)c2ccccc2)cc1	-0.78
COc1ccccc1C1c2c(C)nn(-c3ccccc3)c2NC(=O)C1NC(=O)c1ccccc1 (stereo not drawn)	-0.0952
CNC(=O)CN(c1cc(C)ccc1OC)S(=O)(=O)c1ccc(C)cc1	-0.11
CCc1nnc(NS(=O)(=O)c2ccc(NC(=S)NC(=O)c3ccc(OC)cc3)cc2)s1	-0.392
O=C(CCC1COc2ccccc2O1)NCc1ccccc1 (stereo not drawn)	0.211
CCOC(=O)c1cc(C#N)c(Oc2cccc(C(F)(F)F)c2)nc1-c1ccccc1	-0.14
CCOc1cc(/C=C2\C(=O)N(CCc3ccc(OC)c(OC)c3)C(C)=C2C(=O)OC)ccc1O	-0.507
O=C(NCCCN1CCN(c2ccccc2F)CC1)C1CC(=O)N(C2CCCC2)C1 (stereo not drawn)	1.24
COc1ccc(C2C(C(C)=O)=C(O)C(=O)N2CCCn2ccnc2)cc1 (stereo not drawn)	-0.0749
CCN(CC(=O)NC1CCCCC1)S(=O)(=O)c1ccc(Cl)cc1	0.204
COc1ccc(C(=O)CSc2nc3ccccc3n2CC(=O)NC(C)(C)C)cc1	-0.144
CCCCCCCCN1C(=O)C(O)=C(C(C)=O)C1c1ccccn1 (stereo not drawn)	-0.796
CCc1ccc(N(C(=O)CCC(=O)Nc2cc(C)on2)C(C(=O)NC2CCCC2)c2ccco2)cc1 (stereo not drawn)	-0.203
CC(=O)Nc1ccc(S(=O)(=O)NCC(=O)OC(C)c2ccccc2Cl)cc1 (stereo not drawn)	0.214
OCC1CCCN(C(=S)Nc2ccc(OC(F)F)cc2)C1 (stereo not drawn)	-0.156
C=CCCC(=O)Nc1nc(C)c(-c2csc(Nc3ccc(Cl)cc3)n2)s1	0.181
Cc1ccc(CNC(=O)CSc2c3c(nc4ccc(Cl)cc24)CCCC3)o1	-0.0977
CCOC(=O)N1CCC(NS(=O)(=O)c2ccc3c(c2)OCC(=O)N3)CC1	0.746

SMILES	z-score
CCCNC(=O)Nc1ccc2c(c1)nc(C)n2C	0.0563
O=C(c1ccccc1F)N(NC(=O)C(O)(c1ccccc1)c1ccccc1)c1ccccc1	-0.118
Cc1cccc(Nc2nnc(SCC(=O)Nc3ccccc3[N+](=O)[O-])s2)c1	-0.102
O=C(Nc1cccc(-c2csc(-c3ccccc3)n2)c1)c1cccs1	-0.145
COc1ccc(N2CCN(C(=O)c3ccc(OCC4CCCO4)cc3)CC2)cc1 (stereo not drawn)	1.96
CC(C)(C)n1ncc2c(=O)n(CC(=O)Nc3ccc4c(c3)OCCO4)cnc21	0.0522
COCCNC(=O)c1ccc(N(C)S(=O)(=O)c2ccc(OC)c(OC)c2)cc1	-0.42
CC1(C)NC(=O)N(CC(O)Cn2nnc3ccccc32)C1=O (stereo not drawn)	-0.354
CC(C)N(C(=O)N1CCC(c2nc(-c3ccncc3)no2)CC1)C(C)C	-0.207
Cn1c(SCC(=O)N2c3ccccc3Sc3ccccc32)nnc1-c1ccco1	-1.85
COc1ccc(CN(CC2CCCO2)C(=O)CN2C(=O)COc3ccccc32)cc1OC (stereo not drawn)	0.574
c1ccc(Oc2ccc(-n3cnnn3)cc2)cc1	0.426
CCCCCOc1ccc(CSC2=NCCN2)cc1[N+](=O)[O-]	0.0304
CNCCCOc1ccc(C(C)(C)c2ccccc2)cc1	0.32
CC(=O)Nc1ccc(N(C)C)cc1[N+](=O)[O-]	0.183
Cc1ccc(NC(=O)CCC(=O)NNC(=O)c2cccc([N+](=O)[O-])c2)cc1C	-0.622
COc1cccc(C2CC(c3cccs3)=NN2C(=O)CSc2nc3ccccc3o2)c1OC (stereo not drawn)	-0.147
COC(=O)c1ccc(NC(=O)CN2C(=O)C3C4C=CC(C4)C3C2=O)cc1 (stereo not drawn)	-0.0955
CCc1nn(CC(=O)NCCCN2CCc3ccccc3C2)c(=O)c2cc3sccc3n12	-0.0587
COc1ccc(NC(=S)c2ccc(N(C)C)cc2)cc1	-0.183
OC(COc1ccc2ccccc2c1)CN1CCOCC1 (stereo not drawn)	-0.0154
Cc1cccc(-n2c(SCC(=O)N3CC(=O)Nc4ccccc43)nc3ccccc3c2=O)c1C	-0.543

SMILES	z-score
CCOC(=O)c1cc2oc(C(c3nnnn3C3CCCCC3)N3CCOCC3)cc2[nH]1 (stereo not drawn)	0.252
O=C(CN1C2=NCCN2c2ccccc21)c1cccs1	0.0115
O=C(O)c1ccc(CSc2n[nH]c(-c3ccco3)n2)cc1	0.105
COCC(=O)Nc1cc(C(=O)Nc2cccc(C)c2C)ccc1Cl	-0.402
COc1ccc(OCCCN2CCCCCC2)cc1	active: 8.02
CC12CC3(C)CC(C)(C1)CC(NC(=O)N1CCCC1)(C2)C3	-0.28
Cc1ccc(=O)n(C(C(=O)NCc2ccco2)C(=O)c2ccc(F)cc2)c1 (stereo not drawn)	0.623
CC1(C)CC(CC(=O)Nc2ccccc2[N+](=O)[O-])C(=O)O1 (stereo not drawn)	-0.0252
O=c1n(-c2cccc(Cl)c2)c(=O)n2n1CCC2	-0.72
CSc1nc2cc(S(=O)(=O)N3CCOCC3)ccc2s1	0.204
COCCCn1c(SCc2cccc(C(F)(F)F)c2)nc2cc(OC)c(OC)cc2c1=N	-0.159
CCN(CC)CCN1C(=O)c2ccccc2NC1c1ccc(N(C)C)cc1 (stereo not drawn)	-0.18
CCOC(=O)c1c[nH]c2c(Cl)c(Cl)ccc2c1=O	-0.236
Cc1cccc(NC(=O)C2CCN(S(=O)(=O)c3cccs3)CC2)c1	-0.638
COC(=O)C1=C(C)OC(N)=C(C#N)C1c1c(C)nn(-c2ccccc2)c1Cl (stereo not drawn)	-0.777
O=C(OCC(=O)N1CCCCCC1)c1cccs1	0.295
CCN(CC)c1ccc([N+](=O)[O-])cc1C(=O)O	0.0144
Cc1nc2c(C(=O)NCc3ccccc3)c[nH]n2c(=O)c1Cl	-1.48
CC(=O)c1ccc(Oc2cc(C)nc(-n3nc(C)cc3C)n2)cc1	0.366
CC(C)n1ncc(C(N)=O)c1N	-0.447
O=C(CN1CCC(C(=O)c2ccc(F)cc2)CC1)Nc1ccc(F)cc1	0.273
Cc1ccc(Nc2nc(-c3c(C)nc4ncccn34)cs2)cc1	-0.789

SMILES	z-score
O=S(=O)(c1ccc(S(=O)(=O)N2CCN(Cc3ccccc3)CC2)cc1)N1CCOCC1	-0.0128
COc1ccccc1NC(=S)NCCc1ccccc1	-0.188
CC(C)CCOc1ncnc2c1sc1nc3c(cc12)CSC(C)(C)C3	-1.34
Cc1nc2ccccc2c2oc(C(=O)NCCN3CCN(C)CC3)cc12	-0.131
CC(Nc1cc(N2CCNCC2)ccc1[N+](=O)[O-])c1ccccc1 (stereo not drawn)	1.15
O=C1CC(SCCc2nc3ccccc3[nH]2)C(=O)N1c1ccc(Cl)cc1 (stereo not drawn)	-0.246
O=C(CSc1nnc(COc2ccccc2F)n1-c1ccccc1)NC1CCS(=O)(=O)C1 (stereo not drawn)	-0.055
O=C(Cc1ccccc1)Nc1nc2ccccc2[nH]1	1.95
COc1cc2c(cc1NC(=O)CSc1nnc(COc3ccc(Cl)cc3)n1C)oc1ccccc12	-0.224
CS(=O)(=O)N(Cc1ccccc1)c1ccccc1C(=O)Nc1ccccc1C(=O)NCc1ccco1	-1.29
CCCCN(CC)C(=O)c1n[nH]c(=O)c2ccccc12	-0.164
N#CC(c1ccc(Cl)cc1)(c1ncc(C(F)(F)F)cc1Cl)N1CCOCC1 (stereo not drawn)	-0.37
CCN(CC)CCn1c(=S)[nH]c2cc3c(cc2c1=O)OCO3	-0.565
COc1cc2c(cc1NC(=O)COC(=O)CNS(=O)(=O)c1ccc(C)cc1)oc1ccccc12	-0.495
O=S(=O)(/N=C(/Nc1ccccc1)c1ccccc1)c1cccs1	-0.282
CN1CCN(c2ccccc2NC(=O)c2cccc(OCc3ccccc3)c2)CC1	0.877
CCC(Sc1nc2n[nH]c(C)c2c(=N)n1-c1cccc(Cl)c1)C(=O)NCCOC (stereo not drawn)	-0.708
O=C(C1CCCO1)N1CCN(C(=S)Nc2ccccc2C(F)(F)F)CC1 (stereo not drawn)	-0.171
CC(=O)Nc1cc2c(cc1NC(=O)c1cnccn1)OCCO2	-0.385
COc1ccc(CNS(=O)(=O)c2ccc3c(c2)CCN3C(=O)C2CC2)cc1	0.673
CCOc1ccccc1NC(=O)COC(=O)CSc1ccc(Cl)cc1	0.0724
Cc1cccc(NC(=O)CCN2C(=O)C3C4C=CC(C4)C3C2=O)c1 (stereo not drawn)	-0.0459

SMILES	z-score
CCOC(=O)c1cnc2cc(Cl)c(OC)cc2c1NCC1CCCO1 (stereo not drawn)	-0.264
Cc1ccc(OCC(=O)Nc2ccc(N(C)C)cc2)cc1	1.74
Cc1c(NC(=O)C(C)OC(=O)C(NC(=O)c2ccco2)C(C)C)c(=O)n(-c2ccccc2)n1C (stereo not drawn)	0.193
COC(=O)C1=C(C)N(Cc2ccc(C)cc2)C(=O)/C1=C\c1ccc(O)c(OC)c1	-0.73
CCOC(=O)c1c(NC(=O)CC2Nc3ccccc3NC2=O)sc(C)c1C (stereo not drawn)	-0.035
COc1cc(/C=C2\SC(c3ccc(C)cc3)=NC2=O)cc(OC)c1OC	-1.62
CC1CCCC(NC(=O)CSc2nccn2C)C1C (stereo not drawn)	0.409
Cc1ccc(S(=O)(=O)NCCSc2nnnn2-c2cc(C)ccc2C)cc1	0.419
CC(=O)c1cccc(NC(=O)c2ccncc2)c1	-0.165
COc1ccccc1NC(=O)C1=C(C)Nc2nc(CCCO)nn2C1c1ccc2c(c1)OCO2 (stereo not drawn)	-0.459
FC(F)(F)c1cccc(Cn2nnnc2-c2cccc(C(F)(F)F)c2)c1	-0.494
Cc1ccccc1C(=O)Nc1ccccc1-n1cccc1	-0.134
CC(=O)Nc1ccccc1NC(=O)c1cccc2ccccc12	0.207
CCCCn1c(O)c(N=NC(=O)c2ccncc2)c2cc(Br)ccc21	-0.148
COC(=O)c1sccc1NC(=O)c1ccc2c(c1)OCO2	0.134
CCC(C)n1c(SCC(=O)Nc2cc(C)on2)nc2ccccc2c1=O (stereo not drawn)	0.0932
NC(=O)C1(N2CCCCC2)CCN(C(=O)NC23CC4CC(CC(C4)C2)C3)CC1	-0.0737
Cc1ccc(Cn2ccc(NC(=O)c3cc(-c4ccc(F)cc4)on3)n2)cc1	-0.132
Cc1ccccc1NC(=S)N(CCCN1CCOCC1)Cc1cccs1	-0.491
Cc1ccc(/C=C/C(=O)Nc2nc3ccccc3[nH]2)cc1	-0.25
